Reference: PubChem BioAssay AID1508623 (National Center for Advancing Translational Sciences (NCATS), 2021)
The whole screen tested about 48,000 compounds, of which about 450 (0.94%) were called active. Another 19% or so got no clear call; they are omitted. Calls follow the shape of the dose curve; as a rule, active = well fitted inhibition curve with a large enough effect; inconclusive = small, poorly fitted or top-dose-only effect; inactive = no such curve, though single readings can be large or run the other way. The list shows a part of the results.

Assay: Primary qHTS for Identification of Small Molecule Inhibitors of Huntingtin Promoter Activity; also: nearly all actives have a fitted effect of over 50% in size
Conditions: HEK293 HTT promoter firefly luciferase reporter (activity 0% = vehicle and -100% = no light), 24 h; series mostly up to 57.5 µM; activity change, negative = inhibition: at the top concentration
Summary of the method: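 Firefly luciferase signal from promoter-reporter HEK293 cells was scaled between vehicle (0%) and zero RLU (-100%). Compounds were tested at final concentrations of up to 57.5 uM over 24 h at 37 degrees C. PTC124 at 50 uM final served as control inhibitor.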
Potency is read from the fitted curve at half-maximal effect.

Compound	activity change, negative = inhibition	Potency
O=C(CCn1cnnn1)Nc1ccccc1	inactive: -3.73%	
COc1ccc(C(=O)Nc2cccc(-c3nc4cccnc4s3)c2C)c(OC)c1	inactive: -0.29%	
CCOC(=O)c1ccccc1NC(=O)Cn1c(=O)n(Cc2ccc(C(=O)NCc3ccc4c(c3)OCO4)cc2)c(=O)c2ccccc21	inactive: -11.8%	
CCOc1ccc(NC(=O)C2CCCN(S(=O)(=O)c3ccc(Br)s3)C2)cc1 (stereo not given)	inactive: -2.59%	
Cc1cccc(C(=O)NC(=O)Nc2ccc(-n3nc(C(F)(F)F)cc3C(F)(F)F)cc2)c1	inactive: -19.7%	
CCOc1cc(Br)c(C2C(C(=O)OC)=C(C)NC3=C2C(=O)c2ccccc23)cc1OCC (stereo not given)	inactive: -32.8%	
COCCCNC(=O)C1CCN(c2ncnc3c2nc2n3CCCCC2)CC1	inactive: -7.3%	
COc1ccc(-c2nc(C)c(CCNC(=O)c3ccccc3Br)s2)cc1OC	inactive: 8.5%	
Cc1c2cnn(CC(=O)NCc3ccc(F)cc3)c(=O)c2c(C)n1Cc1ccccc1Cl	inactive: -24.6%	
COc1cccc(Cn2cnc3c2c(=O)n(C)c(=O)n3C)c1		active: 14.1 µM
CC(=O)N1CCCc2cc(S(=O)(=O)N3CCC(N(C)C(C)C)CC3)ccc21	inactive: -6.77%	
Cc1nc2c(C(=O)NCCC(C)C)cnn2c(C)c1Cc1c(F)cccc1Cl	inactive: -10.9%	
CCC(C)NC(=O)C1CCN(S(=O)(=O)c2ccc3c(ccn3CC)c2)CC1 (stereo not given)	inactive: -19.2%	
COc1cccc2sc(N(Cc3cccnc3)C(=O)c3ccc(S(=O)(=O)N(C)C)cc3)nc12	inactive: -19.8%	
O=C(O)c1ccccc1NC(=O)N1c2ccccc2Sc2ccccc21	inactive: -7.5%	
CCOC(=O)C1CCCN(C(=O)C2CCN(S(=O)(=O)c3c(C)noc3/C=C/c3ccc(C)cc3)CC2)C1 (stereo not given)	inactive: -12.8%	
CC1CCCN(Cc2c(O)ccc3c(=O)c(-c4ccc(Cl)cc4)c(C(F)(F)F)oc23)C1 (stereo not given)	inactive: -3.93%	
COc1cc2c(cc1OC)C(c1cc(OC)c(O)c(OC)c1)CC(=O)N2 (stereo not given)	inactive: 6.57%	
Cc1cc(C)cc(N2C(=O)CS(=O)(=O)C23C(=O)N(Cc2ccccc2)c2ccccc23)c1 (stereo not given)	inactive: -26.9%	
CC(C)(O)c1ccccc1CC[C@@H](SCC1(CC(=O)O)CC1)c1cccc(/C=C/c2ccc3ccc(Cl)cc3n2)c1	inactive: 10.6%	
Cc1cc(OCC(=O)Nc2ncn[nH]2)c(C)c(C)c1Br	inactive: 4.5%	
COc1nnc(-c2ccc(N3CCCCC3)c(NC(=O)c3ccc(Cl)cc3)c2)c2ccccc12	inactive: -22.9%	
CCc1cc(=O)[nH]c(SCc2nc(-c3ccccc3C)no2)n1	inactive: -4.32%	
CCOC(=O)C1CCN(c2ncnc3c2c(-c2ccccc2)cn3-c2ccc(C)c(Cl)c2)CC1	inactive: -14%	
O=C1NC(=O)C(c2ccccc2)(c2ccccc2)N1	inactive: -10.1%	

Compound	activity change, negative = inhibition	Potency
COc1ccc(OC)c(NC(=O)c2nc(SCc3ccc(F)cc3)ncc2Cl)c1	inactive: -0.177%	
O=C(NCCc1csc(-c2ccc(F)cc2)n1)C(=O)Nc1ccc(Cl)cc1	inactive: -5.13%	
CCC(=O)N1c2ccc(S(=O)(=O)NCCc3ccccc3)cc2CC1C (stereo not given)	inactive: -29.4%	
O=C(/C=C/c1cn(CC(O)CN2CCc3ccccc32)c2ccccc12)c1ccc(Br)cc1 (stereo not given)	inactive: -23.8%	
COC(=O)c1ccccc1NC(=O)N(Cc1ccc(C)cc1)Cc1cccn1-c1nnc(N2CCCC2=O)s1	inactive: -11.5%	
CCOC(=O)c1[nH]c(C)c(CCC(=O)NCc2ccc(OC(C)C)cc2)c1C	inactive: -35.6%	
Cc1ccc(CNS(=O)(=O)c2c(C(=O)N3CCC(C)CC3)c(C)n(C)c2C)cc1	inactive: -15%	
COc1ccc(C)cc1NC(=O)C1CCN(S(=O)(=O)c2cccc3nonc23)CC1	inactive: -8.54%	
Cc1cc(Nc2cccc(O)c2)c2cccc(Br)c2n1	inactive: 4.02%	
Cc1sc2ncn(CC(=O)Nc3ccc(C(F)(F)F)cc3)c(=O)c2c1S(=O)(=O)N1CCN(C)CC1	inactive: -15.8%	
Cc1cccc(NC(=O)CSc2nnc3c4ccccc4n(C)c3n2)c1	inactive: -7.23%	
CCc1ccc(S(=O)(=O)c2cn(CC(=O)Nc3cccc(C)c3)c3ccc(Cl)cc3c2=O)cc1	inactive: -17.1%	
Cc1ccc(C)c(NC(=O)Nc2csc3c2CCCC3)c1	inactive: -19.6%	
CCOc1ccc2nc(N3CCCC(C(=O)NCc4ccc(C)cc4)C3)sc2c1 (stereo not given)	inactive: 71.3%	
CC(C)NC(=O)C1CCN(C(=O)N2CC(C)Oc3ccccc32)CC1 (stereo not given)	inactive: -0.728%	
COc1ccccc1[C@H](c1cccc2ccccc12)[C@@](C)(C#N)C(=O)N1CCC(c2cccc(C(F)(F)F)c2)CC1	inactive: -4.39%	
CCS(=O)(=O)NCCc1csc2nc(-c3ccc(C)cc3)nn12	inactive: -19.9%	
O=C(COCc1cc(-c2cccs2)on1)Nc1cccc(O)c1	inactive: -11.3%	
COc1ccc(NC(=O)Cn2cc(C(=O)c3cccs3)c3ccccc32)cc1	inactive: -18.8%	
COC(=O)c1c(C)sc(-c2c(-c3ccc4c(c3)OCCO4)[nH]c3c2c(=O)[nH]c(=O)n3C)c1O	inactive: -18.9%	
O=C(O)CO.[NH2-].[NH2-].[Pt+2]	inactive: 13%	
Cc1c(CNCCCc2ccccc2)c(C(=O)O)c(C)n1Cc1cccc(Cl)c1	inactive: -17.1%	
COc1ccc(S(=O)(=O)c2cn(C)c3cc(N4CCOCC4)c(F)cc3c2=O)cc1	inactive: -13.2%	
Cc1ccc(OCc2cc(=O)n3cc(C)sc3n2)c(C)c1	inactive: 4.14%	
CCc1ccc(OCC(=O)Nc2ccc(Cl)c(-c3nc4ncccc4o3)c2)cc1	inactive: 35.7%	
